Data reported in patent publication EP1790726A2 (Wyeth, dated 2007).

Target: T1, purified recombinant human mature GDF-8 (dimer) (human, UniProt O14793 267-375, biotinylated with EZ-link Sulfo-NHS-Biotin in the ActRIIB plate assays; 125I-labelled (chloramine T) in the L6 cell assays; sites not stated)
T1 construct: runs as a dimer on SDS-PAGE; also called myostatin; biotinylated GDF-8
T1 sequence: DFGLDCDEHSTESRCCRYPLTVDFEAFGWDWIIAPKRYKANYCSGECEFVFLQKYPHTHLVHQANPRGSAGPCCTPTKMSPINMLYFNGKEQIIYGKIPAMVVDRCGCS
Test: ActRIIB binding assay (competition ELISA) with biotinylated GDF-8

binding result: binds
B1: Human GDF-8 propeptide-IgG1 wt Fc fusion protein (Fc fusion)
chain: not shown
notes: Made in COS-1 M6 cells, purified on Protein A; also called human GDF-8 propeptide-IgG1 Fc fusion protein
